Assay results published in PubChem BioAssay AID1645887 (National Center for Advancing Translational Sciences (NCATS), 2021).
Where “and” joins values, the source holds several entries; their conditions need not be identical. Equal entries are not always repeated. Hit rate of the full screen: of about 16,000 compounds, about 40 (0.2%) were called active. Inconclusive results (about 1%) are left out. Calls follow the shape of the dose curve; as a rule, active = well fitted activation curve with a large enough effect; inconclusive = small, poorly fitted or top-dose-only effect, or another doubt; inactive = no such curve, though single readings can be large or run the other way. The list shows a part of the results.
% is scaled to controls: 0 for no effect and ±100 for the full control effect.
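Also: exchange makes BODIPY-GDP fluorescence drop when released from Rap1B; series mostly up to about 150 µM.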

Each molecule was assayed against Rap guanine nucleotide exchange factor 4 (Homo sapiens) (UniProt Q8WZA2) (assay: Validation qHTS for agonist of cAMP-regulated guanine nucleotide exchange factor 4 (EPAC2)). Conditions: EPAC2 Rap1B BODIPY-GDP exchange, fluorescence; activation: stronger effect = higher value.
Sequence of UniProt Q8WZA2 (Q8WZA2 whole entry, looked up): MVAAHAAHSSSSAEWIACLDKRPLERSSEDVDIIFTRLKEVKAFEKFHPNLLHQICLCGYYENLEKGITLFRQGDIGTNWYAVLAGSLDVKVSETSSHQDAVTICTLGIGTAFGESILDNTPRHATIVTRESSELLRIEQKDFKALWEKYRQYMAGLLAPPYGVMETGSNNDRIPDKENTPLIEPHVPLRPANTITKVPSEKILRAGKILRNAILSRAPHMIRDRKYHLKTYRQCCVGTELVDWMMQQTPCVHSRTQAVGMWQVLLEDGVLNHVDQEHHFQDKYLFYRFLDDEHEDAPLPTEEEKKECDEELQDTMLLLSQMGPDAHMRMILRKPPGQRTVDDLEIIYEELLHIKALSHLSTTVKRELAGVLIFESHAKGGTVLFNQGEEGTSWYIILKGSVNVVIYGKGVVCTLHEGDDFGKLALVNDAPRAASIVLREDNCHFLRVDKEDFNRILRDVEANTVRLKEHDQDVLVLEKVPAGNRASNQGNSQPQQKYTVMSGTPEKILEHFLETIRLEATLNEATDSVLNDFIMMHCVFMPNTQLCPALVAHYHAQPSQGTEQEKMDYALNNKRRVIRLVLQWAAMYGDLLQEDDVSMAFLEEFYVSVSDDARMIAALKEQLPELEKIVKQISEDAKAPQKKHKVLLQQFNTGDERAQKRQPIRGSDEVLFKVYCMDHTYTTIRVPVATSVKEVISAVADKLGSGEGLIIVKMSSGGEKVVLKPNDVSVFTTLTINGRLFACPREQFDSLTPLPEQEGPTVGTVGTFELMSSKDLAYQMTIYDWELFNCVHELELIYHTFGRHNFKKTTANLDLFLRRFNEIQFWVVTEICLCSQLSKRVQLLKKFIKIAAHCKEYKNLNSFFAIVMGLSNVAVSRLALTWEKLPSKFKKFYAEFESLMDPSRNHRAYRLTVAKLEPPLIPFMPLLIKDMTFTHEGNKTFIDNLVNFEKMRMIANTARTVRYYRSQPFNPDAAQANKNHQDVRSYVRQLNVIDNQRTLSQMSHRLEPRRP
How it was run: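 Signal normalized against 6.5 mM cAMP as agonist control. Mix of EPAC2 (100 nM), RAP1B-BODIPY-GDP (250 nM) and GDP (50 uM) was read kinetically at 480/540 nm, every 5 min over 30 min, after 5 min room-temperature incubation with compound.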
For O=c1oc2ccccc2c(O)c1C(CC(O)c1ccc(-c2ccc(Br)cc2)cc1)c1ccccc1 (configuration not stated), the activation was inactive: -14.5%.
CC(C)[C@H](NC(=O)[C@H](CCC(=O)O)NC(=O)[C@H](Cc1ccccc1)NC(=O)[C@H](C)NC(=O)[C@@H](N)Cc1ccc(O)cc1)C(=O)N[C@H](C(=O)NCC(N)=O)C(C)C was tested, and the activation was inactive: 5.7%.
For CCN[C@@H](C)Cc1cccc(C(F)(F)F)c1, the activation was inactive: -8.14%.
For CCCCCCCCCCCCCCCCOC[C@H](COP(=O)([O-])OCC[N+](C)(C)C)OC(C)=O, the activation was inactive: -13.5%.
With CC1(C)C(O)CC(=O)[C@]2(C)C1CC(=O)[C@]1(C)C2CC[C@@]2(C)C(c3ccoc3)OC(=O)C3O[C@@]321 (some centres not stated) the activation was inactive: -10.4%.
With CCN1C[C@@]2(COC(=O)c3ccccc3N3C(=O)CC(C)C3=O)CC[C@H](OC)[C@]34C5C[C@@H]6[C@@H](OC)C[C@@](O)(C5[C@H]6OC)[C@@](O)(C13)[C@@H](OC)C24 (some centres not stated) the activation was inactive: -28.8%.
O=C(O)C(Cl)(Cl)Cl was tested, and the activation was inactive: 10.9%.
In the case of CC(C)Nc1ccc(Nc2ccccc2)cc1, the activation was inactive: -10.9%.
For NCCc1cccc(O)c1, the activation was inactive: 0.909% and inactive: -7.62%.
O[C@H]1[C@H]2[C@H](O)CCCN2C[C@H]1O was tested, and the activation was inactive: -5.99%.
CNC(=O)NC(O)C(Cl)(Cl)Cl (configuration not stated) was tested, and the activation was inactive: -7.08%.
O=c1ccc2c(O)c3ccoc3cc2o1 was tested, and the activation was inactive: -15.1%.
O=C(Oc1ccccc1)N1CCC[C@@]2(CCN(Cc3nccs3)C2)C1 was tested, and the activation was inactive: -25.8%.
For Oc1ccc(-c2cccnc2)cc1CNC1CN2CCC1CC2 (configuration not stated), the activation was inactive: -17%.
ClC1=C(Cl)C2(Cl)C3C(Cl)C=CC3C1(Cl)C2(Cl)Cl (configuration not stated) was tested, and the activation was inactive: -22.1%.
O=C1CC2OCC=C3CN4CC[C@]56c7ccccc7N1[C@H]5[C@H]2C3C[C@H]46 (some centres not stated) was tested, and the activation was inactive: -7.32%.
O=c1cccc2n1CC1CNCC2C1 (configuration not stated) was tested, and the activation was inactive: -3.64% and inactive: -10.2%.
Oc1ccc2c3c1O[C@H]1c4[nH]c5ccccc5c4C[C@@]4(O)C(C2)N(CC2CC2)CCC314 (some centres not stated) was tested, and the activation was inactive: 12.4% and inactive: -25.4%.
In the case of Cc1ccc2c(c1)C1CN(C)CCC1N2 (configuration not stated), the activation was inactive: -23.6%.
For CC(N)Cc1c[nH]c2ccc(OCc3cccs3)cc12 (configuration not stated), the activation was inactive: 6.93% and inactive: -18.3%.
With C[C@@H]1C[C@@H](O)[C@@]2(O)[C@]13CC(=O)OC[C@]2(C)[C@@](C)(O)C(=O)C3 the activation was inactive: -2.11%.
With Oc1cccc[c]1[Hg][Cl] the activation was inactive: -10.1%.
For O=C1C=C2C=C[C@@H]3C[C@@]2(O1)[C@H]1CCCCN31, the activation was inactive: -3.61% and inactive: -2.31%.
For CCC(=O)OC1(c2ccccc2)CCN(C)CC1, the activation was inactive: -4.54%.
For N#Cc1c(Cl)cccc1Cl, the activation was inactive: 2.21%.
In the case of CN1CCC(c2c[nH]c3ccc(O)cc23)CC1, the activation was inactive: 0.829% and inactive: -7.61% and inactive: -16.9%.
In the case of CN(CCC(N)CC(=O)NC1C=CC(n2ccc(N)nc2=O)OC1C(=O)O)C(=N)N (configuration not stated), the activation was inactive: -6.34%.
With Clc1ccccc1Cl the activation was inactive: -21.3%.
Cc1ncc2n1-c1ccc(Cl)cc1C(c1ccccc1F)=NC2 was tested, and the activation was inactive: -24.2%.
With O=C(O)c1cc(Oc2ccc(C(F)(F)F)cc2Cl)ccc1[N+](=O)[O-] the activation was inactive: -25.6%.
With C[N+](C)(C)CC#CCN1CCCC1=O the activation was inactive: -11.7% and inactive: 0.057%.
With CCOC(=O)CN1C(=O)CC(C[C@@H](O)C2C[C@@H](C)C[C@H](C)C2=O)CC1=O (some centres not stated) the activation was inactive: -23.2%.
For Cc1nnc2n1-c1sc(CCc3ccc(CC(C)C)cc3)cc1C(c1ccccc1Cl)=NC2C (configuration not stated), the activation was inactive: -43.7%.
In the case of Nc1ccc(Sc2ccc(N)cc2)cc1, the activation was inactive: -20.3%.
NNCc1ccccc1 was tested, and the activation was inactive: -5.42%.
NC(=O)c1ccc(OCC(O)CN2CC=C(c3ccc(F)cc3)CC2)cc1 (configuration not stated) was tested, and the activation was inactive: -7.82%.
For CC(C)=CC1C(C(=O)OCc2cccc(Oc3ccccc3)c2)C1(C)C (configuration not stated), the activation was inactive: 4.91%.
CC[C@]1(O)CC(O[C@@H]2CC(N(C)C)C(O)C(C)O2)c2c(cc3c(c2O)C(=O)c2c(O)ccc(O)c2C3=O)C1C(=O)OC (some centres not stated) was tested, and the activation was inactive: -15.2%.
With COc1ccc(CNC(=O)/C=C/c2ccc3[nH]cc(CCN(C)C)c3c2)cc1 the activation was inactive: -34.2%.
For COC1C(O)C(C)O[C@H](OC2CC[C@@]3(C=O)C4CC[C@]5(C)C(C6=CC(=O)OC6)CC[C@@]5(O)C4CC[C@@H]3C2)C1O (some centres not stated), the activation was inactive: 0.118%.
C[C@]12[C@H](O)CC3C(CC[C@@H]4C[C@@H](O)CC[C@]34C)[C@@]1(O)CC[C@@H]2C1=CC(=O)OC1 (some centres not stated) was tested, and the activation was inactive: 2.41%.
With CO/C=C(/C(=O)OC)c1ccccc1Oc1cc(Oc2ccccc2C#N)ncn1 the activation was inactive: -33%.
